Common to all, as to assay: split reporter; NanoBit in live HPK1-/- Jurkat cells transiently transfected with SmBit-tagged SLP76 and LgBit-tagged HPK1 forms; luminescence over time, with or without TCR stimulation (anti-CD3 and anti-IgG)
In assay [1] the target is HPK1 ΔCHD + MAP4K3-CHD with LgBit tag (UniProt Q92918).
In assay [2] the target is HPK1 Y381A with LgBit tag (UniProt Q92918).
Assay [3] concerns the target full-length wild-type HPK1 with NanoBit tag (UniProt Q92918).
For assay [4], the target named is HPK1 CHD + 3PRs with LgBit tag (UniProt Q92918).
The target of assay [5] is HPK1 KD only with LgBit tag (UniProt Q92918).
The target of assay [6] is HPK1 CHD only with LgBit tag (UniProt Q92918).

Amino acid sequences for entries named in this document (tags omitted). A change or cut given only in a name is not applied to a line headed by its entry. Chains listed by the source or under a name are the forms on record and can include a tag or linker. Residues count along the entry.
HPK1 KD only with LgBit tag (Q92918, residues 1-293): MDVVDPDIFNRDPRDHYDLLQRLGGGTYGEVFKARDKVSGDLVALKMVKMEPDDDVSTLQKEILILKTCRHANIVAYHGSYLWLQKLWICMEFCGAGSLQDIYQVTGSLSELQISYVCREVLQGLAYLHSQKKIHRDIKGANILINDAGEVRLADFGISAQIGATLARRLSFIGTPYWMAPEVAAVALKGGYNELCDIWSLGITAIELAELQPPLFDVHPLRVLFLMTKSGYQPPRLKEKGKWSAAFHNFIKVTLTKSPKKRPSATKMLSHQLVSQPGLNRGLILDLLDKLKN
HPK1 Y381A with LgBit tag (Q92918, form named): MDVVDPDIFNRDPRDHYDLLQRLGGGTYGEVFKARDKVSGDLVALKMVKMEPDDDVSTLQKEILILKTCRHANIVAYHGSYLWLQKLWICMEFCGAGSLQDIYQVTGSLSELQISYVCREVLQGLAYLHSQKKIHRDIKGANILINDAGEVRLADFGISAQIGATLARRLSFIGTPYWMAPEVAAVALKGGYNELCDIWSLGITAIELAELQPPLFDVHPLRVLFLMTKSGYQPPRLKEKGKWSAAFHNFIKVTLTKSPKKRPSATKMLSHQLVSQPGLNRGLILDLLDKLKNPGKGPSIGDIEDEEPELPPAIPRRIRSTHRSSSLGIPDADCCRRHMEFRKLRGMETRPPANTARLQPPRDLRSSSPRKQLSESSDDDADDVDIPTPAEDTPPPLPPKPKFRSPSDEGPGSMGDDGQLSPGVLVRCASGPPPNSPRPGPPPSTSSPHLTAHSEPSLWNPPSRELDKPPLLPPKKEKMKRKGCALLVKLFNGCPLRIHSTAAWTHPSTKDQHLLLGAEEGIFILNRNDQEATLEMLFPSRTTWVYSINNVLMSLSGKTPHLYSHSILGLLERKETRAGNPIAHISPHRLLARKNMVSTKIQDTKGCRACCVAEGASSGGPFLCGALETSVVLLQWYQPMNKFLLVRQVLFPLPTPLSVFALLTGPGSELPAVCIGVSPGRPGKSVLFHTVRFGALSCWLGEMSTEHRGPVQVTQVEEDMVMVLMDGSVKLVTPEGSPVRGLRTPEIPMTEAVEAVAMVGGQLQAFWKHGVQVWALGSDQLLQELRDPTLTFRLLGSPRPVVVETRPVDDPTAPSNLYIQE
full-length wild-type HPK1 with NanoBit tag (Q92918, form named): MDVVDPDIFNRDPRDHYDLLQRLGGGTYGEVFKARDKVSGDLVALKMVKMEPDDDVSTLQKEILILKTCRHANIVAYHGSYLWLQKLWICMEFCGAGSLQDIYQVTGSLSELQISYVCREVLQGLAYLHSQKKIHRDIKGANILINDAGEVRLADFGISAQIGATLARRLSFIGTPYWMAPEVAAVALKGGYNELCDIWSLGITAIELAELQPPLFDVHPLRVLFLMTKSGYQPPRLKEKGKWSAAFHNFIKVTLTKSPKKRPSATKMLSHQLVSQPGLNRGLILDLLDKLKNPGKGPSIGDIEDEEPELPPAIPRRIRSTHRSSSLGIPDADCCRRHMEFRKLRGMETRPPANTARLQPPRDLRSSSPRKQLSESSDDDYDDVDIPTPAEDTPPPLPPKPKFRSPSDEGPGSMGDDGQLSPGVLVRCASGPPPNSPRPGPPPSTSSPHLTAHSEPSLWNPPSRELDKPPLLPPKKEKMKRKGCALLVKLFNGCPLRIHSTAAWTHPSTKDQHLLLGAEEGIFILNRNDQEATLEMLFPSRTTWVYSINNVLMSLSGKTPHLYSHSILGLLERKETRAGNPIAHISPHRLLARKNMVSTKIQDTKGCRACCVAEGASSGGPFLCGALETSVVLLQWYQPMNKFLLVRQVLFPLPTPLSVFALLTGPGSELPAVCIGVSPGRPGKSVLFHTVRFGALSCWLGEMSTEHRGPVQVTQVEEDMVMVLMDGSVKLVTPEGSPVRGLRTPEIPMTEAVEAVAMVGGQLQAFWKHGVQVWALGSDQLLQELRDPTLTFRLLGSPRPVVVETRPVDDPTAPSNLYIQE
HPK1 CHD + 3PRs with LgBit tag (Q92918, form named): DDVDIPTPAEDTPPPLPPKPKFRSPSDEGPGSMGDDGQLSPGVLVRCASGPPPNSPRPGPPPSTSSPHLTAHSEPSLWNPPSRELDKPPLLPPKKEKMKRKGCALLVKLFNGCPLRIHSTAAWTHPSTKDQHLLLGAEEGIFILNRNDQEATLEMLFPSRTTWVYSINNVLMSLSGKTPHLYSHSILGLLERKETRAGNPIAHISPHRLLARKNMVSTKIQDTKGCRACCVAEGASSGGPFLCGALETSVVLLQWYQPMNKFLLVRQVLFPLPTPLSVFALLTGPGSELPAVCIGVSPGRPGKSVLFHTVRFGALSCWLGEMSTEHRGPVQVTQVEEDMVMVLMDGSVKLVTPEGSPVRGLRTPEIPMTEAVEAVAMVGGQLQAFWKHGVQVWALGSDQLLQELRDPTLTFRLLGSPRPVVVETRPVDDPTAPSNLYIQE
HPK1 CHD only with LgBit tag (Q92918, form named): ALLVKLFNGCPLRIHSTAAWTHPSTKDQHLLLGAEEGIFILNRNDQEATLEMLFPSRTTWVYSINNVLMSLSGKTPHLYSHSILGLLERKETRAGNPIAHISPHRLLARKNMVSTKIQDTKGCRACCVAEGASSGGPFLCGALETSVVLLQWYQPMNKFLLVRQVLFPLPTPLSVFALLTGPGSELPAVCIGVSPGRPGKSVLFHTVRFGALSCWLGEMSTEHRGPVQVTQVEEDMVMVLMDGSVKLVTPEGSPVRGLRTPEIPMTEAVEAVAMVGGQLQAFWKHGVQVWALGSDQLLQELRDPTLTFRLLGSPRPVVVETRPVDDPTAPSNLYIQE

Results are given in words; binding and its absence hold for the method and conditions named. Binding seen in cells or lysates may run through a third protein. Some results given as binding are weak or reduced against the parent protein; the word gives no strength. Tags and fused reporters may be left off the sequences shown.

B1: SLP76 with SmBit tag (protein, UniProt Q13094 1-533)
chain: MALRNVPFRSEVLGWDPDSLADYFKKLNYKDCEKAVKKYHIDGARFLNLTENDIQKFPKLRVPILSKLSQEINKNEERRSIFTRKPQVPRFPEETESHEEDNGGWSSFEEDDYESPNDDQDGEDDGDYESPNEEEEAPVEDDADYEPPPSNDEEALQNSILPAKPFPNSNSMYIDRPPSGKTPQQPPVPPQRPMAALPPPPAGRNHSPLPPPQTNHEEPSRSRNHKTAKLPAPSIDRSTKPPLDRSLAPFDREPFTLGKKPPFSDKPSIPAGRSLGEHLPKIQKPPLPPTTERHERSSPLPGKKPPVPKHGWGPDRRENDEDDVHQRPLPQPALLPMSSNTFPSRSTKPSPMNPLPSSHMPGAFSESNSSFPQSASLPPYFSQGPSNRPPIRAEGRNFPLPLPNKPRPPSPAEEENSLNEEWYVSYITRPEAEAALRKINQDGTFLVRDSSKKTTTNPYVLMVLYKDKVYNIQIRYQKESQVYLLGTGLRGKEDFLSVSDIIDYFRKMPLLLIDGKNRGSRYQCTLTHAAGYP
Turning to B1, the binding result in assay [1] is given as “binds”; in assay [2] it was “no binding”; in assay [3], “binds”; in assay [4], “no binding”; in assay [5] it was “no binding”; in assay [6], “no binding”.

For the origin of these results see PMC11066036.
